US20180177860A1, “VACCINE […] I[…] GREEN TEA EXTRACT, AND PREPARATION METHOD THEREFOR” (priority 2015, published 2018)

Target: T1, Hemagglutinin (HA) of A/Puerto Rico/8/34(H1N1) virus (Influenza A virus, UniProt P03452)
T1 construct: host or cells: human cells
Test: SDS-PAGE of hemagglutinin reacted with EGCG
Conditions: 100 μg/10 μl EGCG, 2 μg/10 μl hemagglutinin, room temperature 2 hours

## (−)-epigallocatechin gallate [EGCG]
  molecular weight / band size of hemagglutinin: increased the molecular weight of the protein
